Some of the results follow.
B1: 13613202_13613322_368_3pUTR_ENSMUSG00000042742_ENSMUST00000045235|mouse|control|control (ssRNA)
RNA: GGGAGUUCUACAGUCCGACGAUCUACAACACCAUUCAAUGCGACCUUCACCCUCACAAGUUUUUGCCCAGUGAUUAUCUGCCAGAUUUUUCAUUGCAACAGCAUAUUCGCAAAGUGUUUCCGCAUCUUCACAGUGUUCUCGCCCAACAGAGGAUUGAGCAUCA
B2: chrX:71549762:71549763:+_ENSMUSG00000019087_ENSMUST00000019231|mus_mus|mus_mus_mus_hu_False|58_98 (ssRNA)
RNA: GGGAGUUCUACAGUCCGACGAUCAAACCCGUGUACUCACUCUUAACAGCACAACAUCACCAGAAAACGAUAACGACAGCUAAGCUGGACAGACAGUUAAGUAGUACUUCCACACUCCCAAACUCAGGGAGCCCUAUAACCUUACAACAGAGGAUUGAGCAUCA
B3: 11925198_11928534_1590_CDS_ENSG00000134324_ENST00000256720|human|control|control (ssRNA)
RNA: GGGAGUUCUACAGUCCGACGAUCUGCUGUUGUCCAGUUAUAAUAUUUACUCCCAAUCUUUACCACGAGAUUGGGGUCAUCGAUAAUAGCGGGGUUGUCCACAAACUGUUGAUAUGACACAGCUUGCUCCAGGAAUGCAUCUUUCAACAGAGGAUUGAGCAUCA
B4: 46956734_46986804_428_5pUTR_ENSG00000141627_ENST00000269445|human|control|control (ssRNA)
RNA: GGGAGUUCUACAGUCCGACGAUCAUCGCCGAUUCUGCUGCUAUUCGAUCCCAUCUUCUAGCUUAAGCAGAUAAUUUGUCCUUAAACCUGCAUUUCCAAAAGACAACCUGUCUCAGCCGGCUGGGGGAUCUGCUCCAGCUCCACCAACAGAGGAUUGAGCAUCA
B5: 205581677_205581797_5572_3pUTR_ENSG00000158711_ENST00000357992|human|control|control (ssRNA)
RNA: GGGAGUUCUACAGUCCGACGAUCUGUUCAAAAAGGCUGGACACUCCUUUUCUGAACCACUGCUUCAGAGGUAUUGAGAAGUGGUACUGAGUGGCUCUAAAUGUGCUUACAUUCACCAAAAACAUAAAAGGACACCUUUAAGAACAACAGAGGAUUGAGCAUCA
B6: chr4:17845017:17845018:+_ENSG00000109805_ENST00000514176|hu_mus|hu_hu_hu_mus_False|8_68 (ssRNA)
RNA: GGGAGUUCUACAGUCCGACGAUCGCUCUCUUAACUUGUAUCUUCAUUAAGGAACUCUGCAAGGUUAGUUUACUUUUUCUGUAGCGCAGCUGUUUUGGCUCGUCUGGGUAAUCUCAUCUUCAUUUCUAUUCUGGUUCCAUGAUCCAACAGAGGAUUGAGCAUCA
B7: chr4:76721835:76721836:+_ENSG00000138768_ENST00000264904|hu_mus|hu_hu_hu_mus_True|48_68 (ssRNA)
RNA: GGGAGUUCUACAGUCCGACGAUCGUUUGGCUGGGGUUUCUGAGACGCUCUGGAAUAUAACUCAUGUUGCUAAUAAAAUCCUAGUUUUCUAUGAAAUUUCUCUUUGCCAAUCCUCUUCUCUAUUAGUUGCUUUAGUUUCUCUUUCAACAGAGGAUUGAGCAUCA
B8: chr5:77764768:77764769:+_ENSMUSG00000029250_ENSMUST00000031167|mus_hu|motif|central (ssRNA)
RNA: GGGAGUUCUACAGUCCGACGAUCGACACCAAGGAUCAUUGAGGGAUGAAUCUCACAGUGUGUAUAUGUGGAACAAUAAGCGGCUUCUUUCUCCUGUAAAUCAUCUGGAGUCAUUGCAAGCAUCACUGUUUCUUCUUCCAGGGUCAACAGAGGAUUGAGCAUCA
B9: chr10:59412704:59412705:-_ENSMUSG00000020108_ENSMUST00000020308|mus_mus|FALSE|FALSE (ssRNA)
RNA: GGGAGUUCUACAGUCCGACGAUCCUGGCUGCAGCUCCCAGGUGUAAUUUUGUUUCAAGUGUCGAAGAUCCCGAAUGAUCCUAACACCCACCCCAUUCCUACUCUUACAUUCAUGCAGUCUGUAAGAUAGCUGCCUCGAACAGGCAACAGAGGAUUGAGCAUCA
B10: 48613876_48613996_75_5pUTR_ENSMUSG00000020372_ENSMUST00000020640|mouse|control|control (ssRNA)
RNA: GGGAGUUCUACAGUCCGACGAUCGGGUCCCGCGAAGGGUCAUCUGCUCGGUCAUGGCUGCAGUUGAUGCGAGGGUCGCCGCAGCGACAAGGAUGGCACCGGAUAGCUCAGAGAGCCAAGCACCACAGCGGCUGCCACCACGACCAACAGAGGAUUGAGCAUCA
B11: chrX:12253581:12253582:-_ENSMUSG00000064127_ENSMUST00000096495|mus_mus|motif|central (ssRNA)
RNA: GGGAGUUCUACAGUCCGACGAUCUUAAAAAGUCCCUGACUGGCUUCAAGAGACAGUACAGUACUCUUAAAAAGAAAUCCGGUUGAGAUGUACCAGUGCCAGAAACUCCACUGAACACUGGACAGGCACUGCACUGUGGACUUUCAACAGAGGAUUGAGCAUCA
B12: chr1:90180419:90180420:+_ENSG00000171488_ENST00000370454|hu_hu|motif|central (ssRNA)
RNA: GGGAGUUCUACAGUCCGACGAUCAGCCCGACAGUCACCCAGUUCAGGAGGGAGGAUUUCAAAGUGAUUACCUUUUACAUCGGAGUAGGAAAGAAAUAGCAAAUUUCCAAUUUUCGGUGAAAGUACAGAUAGGCUGUUUUUUCCCAACAGAGGAUUGAGCAUCA
B13: 160201109_160201584_1196_CDS_ENSG00000120438_ENST00000392168|human|control|control (ssRNA)
RNA: GGGAGUUCUACAGUCCGACGAUCAGCCUUAGUAUUUUUGAUUAAGAUCAGCUCAUCAUCACAAAUUCUCUCCUGUACCACUUCUUCUGCCUGUCCCAACAUUGCAGCUUCAAAAGUUUCUUCACCUUCCAAAUUGGCCAGGGUCAACAGAGGAUUGAGCAUCA
B14: chr18:52893488:52893489:-_ENSG00000196628_ENST00000354452|hu_hu|hu_hu_hu_mus_True|1_98 (ssRNA)
RNA: GGGAGUUCUACAGUCCGACGAUCUAUUUAGACCAUUUCAAUGGAUUUAUGGCAUUUACUCAGUGCUGAUAGGUGGAAAAACUACUUCAACAGGGAUUUUUUUUUUCCUUAAUACAUGCCAAGAUUGUGUGGCUGUCAAAAAUACAACAGAGGAUUGAGCAUCA
B15: chr5:145543945:145543946:-_ENSG00000133706_ENST00000545646|hu_hu|hu_hu_hu_mus_True|98_108 (ssRNA)
RNA: GGGAGUUCUACAGUCCGACGAUCCUGAAUAGCCAGUGGCGGGAAAUAAUCAAGCCAGUGCUCUGCUUCAGAAAACUUCACUAUGUCGUCAUCAGAGAGCCCAAGGGAUUUCAUAAUGUCCCACUGGUACUUAGAAGAUCCUGCCAACAGAGGAUUGAGCAUCA
B16: chr6:149508383:149508384:+_ENSMUSG00000003452_ENSMUST00000086829|mus_mus|FALSE|FALSE (ssRNA)
RNA: GGGAGUUCUACAGUCCGACGAUCCUCCUUUAGGCAAAUAUAAAUUAUAAUUUCCAAAUAAGUCUUUUCUUCAUUCCUUUAUAGAUUUAUAUUCUCUAGAAGUUUUCAAAAUUCAUUUUUCCUCCUCUCUCUUCUUUUAAAUCCCAACAGAGGAUUGAGCAUCA
B17: chr7:87731985:87731986:-_ENSMUSG00000030527_ENSMUST00000122255|mus_hu|FALSE|FALSE (ssRNA)
RNA: GGGAGUUCUACAGUCCGACGAUCAAAUAGUUUACUCUGAAGUAUGCAGCUGCUUCAAAUGCUGAGGACCACAACUGGUUUUGUUACAAAGGCCGCAGUGAGUGCAGGCUCACGUGCUGUGGGCCAGGGCGACCCUGCCCGUGGCAACAGAGGAUUGAGCAUCA
B18: chr9:95013113:95013114:-_ENSG00000196305_ENST00000443024|hu_hu|hu_hu_hu_mus_False|8_98 (ssRNA)
RNA: GGGAGUUCUACAGUCCGACGAUCCUCAGUCAGAAAGGGUGUGUAGGGGGCCAUCAGUCUGCACAGAGAAAGCAGGACACUGAACAGUGUCUCCAGAGCCAUGACACAGUCUUCCACCCCACUCUCACCCUUUAAUCUCCUCCUCAACAGAGGAUUGAGCAUCA
B19: chr14:54894545:54894546:-_ENSG00000100528_ENST00000216416|hu_mus|motif|central (ssRNA)
RNA: GGGAGUUCUACAGUCCGACGAUCCUUCAUUGGUGGCGUUUUGCAUGCACUUAACUGGACCGAUUCUUCUGUGUUGUUCGGAGAGCUCACCAGAACAUAGAUCAUGCCGUAUAGGUAGUAAAAAAACGCUAGAAGGUAAAAAGCCAACAGAGGAUUGAGCAUCA
B20: chr1:120459247:120459248:-_ENSG00000134250_ENST00000256646|hu_mus|FALSE|FALSE (ssRNA)
RNA: GGGAGUUCUACAGUCCGACGAUCCCGAGCCACAUCCCGGGGAAGGCGGUCCAUGUGGUCAGUGAUGUCCCGGUUGGCAAAAUGGUCUAACAGGAUUUUGGCCGCUUCAUAACUUCCCUCUCGGGCAGCAAGAAACAAAGGUGUCAACAGAGGAUUGAGCAUCA
B21: chr16:78329203:78329204:+_ENSMUSG00000022865_ENSMUST00000023572|mus_hu|FALSE|FALSE (ssRNA)
RNA: GGGAGUUCUACAGUCCGACGAUCUACUCGGCCUUUCAGAUCUGGAUAGUAGUCAUCAUAAAUUUUGUCUCCAGAAUAUAAAAUAAUCACUUGAUCCACCUUCUGAUUAUCAGCUGGUGAUAUCAGCCACUCGAUGUCCAGCGGCAACAGAGGAUUGAGCAUCA
B22: chr22:32879901:32879902:+_ENSG00000100225_ENST00000397426|hu_mus|FALSE|FALSE (ssRNA)
RNA: GGGAGUUCUACAGUCCGACGAUCCUCUUCCAUACUCAUGGCAUCCUGAAUUGACUCAGCUUCAACAUUUUGACUAGGCCCUUCCAUACUGUCAUCAGUCCAGGCAUCAAAUGGGGUGGCCUGUCCUUGGGAUGAAUCAGUCCCCAACAGAGGAUUGAGCAUCA

Target: T1, UNK ZnF1-3 (human, UniProt Q9C0B0 31-174)
T1 sequence: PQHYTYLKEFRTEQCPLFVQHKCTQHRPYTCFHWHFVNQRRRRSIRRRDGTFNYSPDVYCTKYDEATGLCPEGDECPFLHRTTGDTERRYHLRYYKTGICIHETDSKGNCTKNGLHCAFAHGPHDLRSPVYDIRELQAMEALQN
Assay: nsRBNS (natural sequence RNA bind-n-seq); RBNS binding buffer (assumed for nsRBNS): 25 mM Tris pH 7.5, 150 mM KCl, 3 mM MgCl2, 0.01% Triton X-100, 500 ug/ml BSA, 20 U/ml SUPERase-In, 4 C; UNK is unkempt and MSI1 is Musashi-1; names of the RNAs are library labels; protein concentration not given here; high values mean tight binding

Row | Binder | binding signal [enrichment R]
1 | B1 | 1.03
2 | B2 | 1.44
3 | B3 | 1.07
4 | B4 | 1.01
5 | B5 | 2.11
6 | B6 | 0.392
7 | B7 | 0.521
8 | B8 | 1.45
9 | B9 | 1.16
10 | B10 | 0.679
11 | B11 | 0.708
12 | B12 | 1.63
13 | B13 | 1.34
14 | B14 | 0.999
15 | B15 | 1.21
16 | B16 | 1.31
17 | B17 | 0.778
18 | B18 | 0.942
19 | B19 | 1.38
20 | B20 | 1.12
21 | B21 | 1.1
22 | B22 | 1.14

Source: PMC12136788
